Reference: PubChem BioAssay AID1508623 (National Center for Advancing Translational Sciences (NCATS), 2021)
Out of some 48,000 compounds screened, about 450 (0.94%) were called active. The shares of active, inactive and inconclusive entries below differ from those in the screen. The call rests on the fitted dose curve; in most records, active means well fitted inhibition curve with a large enough effect; inconclusive means small, poorly fitted or top-dose-only effect; inactive means no such curve, though single readings can be large or run the other way. A potency beside an inconclusive call is a rough fit, not a confirmed value.

assay: Primary qHTS for Identification of Small Molecule Inhibitors of Huntingtin Promoter Activity; details: HEK293 HTT promoter firefly luciferase reporter (activity 0% = vehicle and -100% = no light), 24 h; series mostly up to 57.5 µM; further: nearly all actives have a fitted effect of over 50% in size
Outline: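 Firefly luciferase signal from promoter-reporter HEK293 cells was scaled between vehicle (0%) and zero RLU (-100%). Compounds were tested at final concentrations of up to 57.5 uM over 24 h at 37 degrees C. PTC124 at 50 uM final served as control inhibitor.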
Potency means the concentration at half of the fitted maximal effect; tags describe the fitted curve by direction and shape.

Compound	Potency
O=S(=O)(NCCNCC=Cc1ccc(Br)cc1)c1cccc2cnccc12	inconclusive: 15.3 µM [inhibitor, partial curve, poor fit]
CC[C@H]1OC(=O)[C@H](C)[C@@H](O[C@H]2C[C@@](C)(OC)[C@@H](O)[C@H](C)O2)[C@H](C)[C@@H](O[C@@H]2O[C@H](C)C[C@H](N(C)C)[C@@H]2O)[C@](C)(O)C[C@@H](C)CN(C)[C@H](C)[C@@H](O)[C@]1(C)O	inactive
COc1ccc(OC)c(NC2=C(c3ccccc3)C(=O)c3ccccc32)c1	inconclusive: 11.2 µM [inhibitor, partial curve, poor fit]
COc1ccc(N2CCN(C(=O)c3cc4c(-c5ccccc5F)nn(C)c4s3)CC2)cc1	inconclusive: 35.5 µM [inhibitor, partial curve, poor fit]
CCN(CC)c1nc(-c2ccc(C(C)(C)C)cc2)nc2ccccc12	inconclusive: 12.6 µM [inhibitor, partial curve, poor fit]
O=C1CS(=O)(=O)C2(C(=O)N(Cc3cccc(F)c3)c3ccccc32)N1c1ccccc1 (configuration not stated)	inconclusive: 20 µM [inhibitor, partial curve, poor fit]
CCOc1ccc(CCNC(=O)CCc2c(C)nc3c(c(C)nn3-c3ccccc3)c2C)cc1OCC	inactive
COc1ccc(NC(=O)Nc2nnc(N3CCCCCC3)s2)cc1	inconclusive: 22.4 µM [inhibitor, partial curve, poor fit]
Cc1ccc(CNC(=O)Cn2c3ncccc3c(=O)n2-c2ccccc2)cc1	inconclusive: 10 µM [inhibitor, partial curve, poor fit]
O=C(CSc1ccc(-c2ccccn2)nn1)Nc1ccc(F)c(F)c1	inconclusive: 39.8 µM [inhibitor, single point]
CCOc1ccccc1NC(=O)c1ccc2oc(=O)c(S(=O)(=O)c3ccc(F)cc3)cc2c1	inconclusive: 39.8 µM [inhibitor, single point]
CN(C(=O)CSc1nc2ccc(NC(=O)c3ccc(F)cc3)cc2s1)c1ccccc1	inconclusive: 35.5 µM [inhibitor, partial curve, poor fit]
COc1ccc(-c2onc(C)c2C)cc1S(=O)(=O)NC1CCCCC1	inconclusive: 20 µM [inhibitor, single point]
CC(=O)c1cccc(NC(=O)c2ccc3c(c2)CCN3S(=O)(=O)c2ccccc2)c1	inconclusive: 35.5 µM [inhibitor, partial curve, poor fit]
COc1ccc(C(=O)Oc2c(Sc3ccc(C)cc3)c(C)nn2C(C)(C)C)c(OC)c1	inconclusive: 31.6 µM [inhibitor, partial curve, poor fit]
CCC12CN3CC(C)(CN(C1)C3c1c(C)[nH]c3ccccc13)C2=O (configuration not stated)	inconclusive: 0.447 µM [inhibitor, full curve]
O=C(O)c1ccc(Nc2ncc3c(n2)-c2ccc(Cl)cc2C(c2c(F)cccc2F)=NC3)cc1	inconclusive: 21.7 µM [inhibitor, partial curve, poor fit]
CCN(c1cccc(C)c1)C(CNS(=O)(=O)c1ccccc1)c1ccccc1 (configuration not stated)	inconclusive: 25.1 µM [inhibitor, partial curve, poor fit]
O=C(Nc1ccc(F)c(Cl)c1)C1CCCN(c2ncnc3onc(-c4ccc(F)cc4)c23)C1 (configuration not stated)	inconclusive: 39.8 µM [inhibitor, single point]

Compound	Potency
COc1ccc(C2C=C(c3ccc(C)cc3)Nc3c(C(=O)Nc4ccccc4)cnn32)cc1 (configuration not stated)	inconclusive: 28.2 µM [inhibitor, partial curve, poor fit]
COCCCn1c(SCc2ccccc2F)nc2c(sc3ccccc32)c1=O	inactive
Cc1cccc(N2CCN(c3ncnc4onc(-c5ccc(F)cc5)c34)CC2C)c1 (configuration not stated)	inconclusive: 25.1 µM [inhibitor, single point]
Cc1cc(C)c2oc(-c3ccc(NC(=O)c4cc(Br)ccc4Cl)cc3)nc2c1	inconclusive: 22.4 µM [inhibitor, single point]
CC(=O)N1CCCc2cc(S(=O)(=O)N(C)CC(=O)Nc3cccc(Cl)c3C)ccc21	inconclusive: 17.8 µM [inhibitor, partial curve, poor fit]
Cc1nc2cnc3ccc(C#Cc4cccnc4)cc3c2n1-c1ccc(C(C)(C)C#N)cc1	inconclusive: 0.172 µM [inhibitor, full curve]
CCN(CC)c1ccc(NC(=O)COCc2cc(-c3ccc4c(c3)OCO4)on2)c(C)c1	inconclusive: 39.8 µM [inhibitor, single point]
CC(=O)N1CCCc2cc(S(=O)(=O)N(C)CC(=O)Nc3ccc(C(C)C)cc3)ccc21	inconclusive: 20 µM [inhibitor, partial curve, poor fit]
OC1(c2ccc(Cl)cc2)CCNCC1	inactive
COc1ccccc1CNC(=O)C(=O)NCC(c1ccco1)S(=O)(=O)c1ccc(F)cc1 (configuration not stated)	inconclusive: 39.8 µM [inhibitor, single point]
COc1ccc(C(=O)Oc2c(Sc3ccccc3)c(C)nn2-c2ccccc2)c(OC)c1	inconclusive: 14.1 µM [inhibitor, partial curve]
Cc1cccc(C)c1OCCn1c(CCNC(=O)C2CCCCC2)nc2ccccc21	inconclusive: 31.6 µM [inhibitor, single point]
CC(C)(C)c1ccc(C(=O)NCC(c2ccco2)S(=O)(=O)c2ccccc2)cc1 (configuration not stated)	inconclusive: 17.8 µM [inhibitor, single point]
COc1cccc(C(=O)Nc2nc(-c3nnn(-c4ccccc4C(F)(F)F)c3C)ns2)c1	inconclusive: 25.1 µM [inhibitor, single point]
Cc1c(Cl)ccc2sc(N3CCN(C(=O)CCS(=O)(=O)c4ccc(F)cc4)CC3)nc12	inconclusive: 2 µM [inhibitor, full curve]
Cc1ccc2c(c1)C(c1ccccc1)N(C(=O)COc1ccc(Cl)cc1Cl)CC(=O)N2 (configuration not stated)	inconclusive: 39.8 µM [inhibitor, single point]
CCCCN1C(=O)C(O)(CC(=O)c2ccc(CC)cc2)c2cc(Br)ccc21 (configuration not stated)	inconclusive: 28.2 µM [inhibitor, partial curve, poor fit]
Cc1ccc(NC(=O)n2ncc3c(C)cccc32)c(C)c1	inactive
COc1cccc(C2=CC(c3ccccc3F)n3ncc(C(=O)Nc4ccc(F)cc4)c3N2)c1 (configuration not stated)	inconclusive: 39.8 µM [inhibitor, partial curve, poor fit]

Compound	Potency
CCc1ccc(CNC(=O)c2ccc3c(c2)c(C)c(C)n3Cc2ccccc2)cc1	inactive
O=C(NC1CCCCC1)c1ccc(CSc2nc3ccncc3n2Cc2cccc(F)c2)cc1	inconclusive: 39.8 µM [inhibitor, single point]
CCOC(=O)N1CCc2c(sc(NCc3cc(OC)ccc3OC)c2C(=O)Nc2cc(OC)ccc2OC)C1	inconclusive: 12.6 µM [inhibitor, partial curve, poor fit]
NC(CO)(CO)CCc1ccc(Sc2cccc(OCc3ccccc3)c2)cc1Cl	inactive
CCS(=O)(=O)c1ccc(C(=O)N2CCN(c3nc4c(OC)ccc(C)c4s3)CC2)cc1	inconclusive: 12.6 µM [inhibitor, partial curve, poor fit]
COc1cccc(NC(=O)CSc2cc(C)c3ccccc3n2)c1	inconclusive: 20 µM [inhibitor, single point]
O=C(Cn1ncc2ccsc2c1=O)N1CCN(c2ccc(Cl)cc2)CC1	inconclusive: 20 µM [inhibitor, partial curve]
CCOc1ccc(N2CC(c3nc4ccccc4n3Cc3cccc(Cl)c3)CC2=O)cc1 (configuration not stated)	inconclusive: 31.6 µM [inhibitor, single point]
O=C(NCc1ccc(Cl)cc1)c1cc(S(=O)(=O)N2CCCCC2)c[nH]1	inconclusive: 28.2 µM [inhibitor, partial curve, poor fit]
Cc1c2cnn(CC(=O)N3CCN(c4ccc(F)cc4)CC3)c(=O)c2c(C)n1Cc1ccc(F)cc1	inconclusive: 11.2 µM [inhibitor, partial curve]
CCOC(=O)c1cc(-c2ccccc2)n(-c2cccc(C(=O)Nc3ccc(F)c(F)c3)c2)c1C	inconclusive: 22.4 µM [inhibitor, partial curve, poor fit]
COc1ccccc1CNC(=O)CCn1c(=O)c2ccccc2n(CC(=O)Nc2cccc(Cl)c2)c1=O	inconclusive: 25.1 µM [inhibitor, partial curve, poor fit]
CCN(CC)CCCC(C)Nc1c2ccc(Cl)cc2nc2ccc(OC)cc12 (configuration not stated)	inactive
CCOc1ccc(S(=O)(=O)NCC(c2ccco2)S(=O)(=O)c2cccs2)cc1 (configuration not stated)	inconclusive: 39.8 µM [inhibitor, single point]
CCc1ccc(CNC(=O)Cc2ccc(NC(=O)N3CCSc4ncccc43)cc2)cc1	inconclusive: 15.8 µM [inhibitor, partial curve]
CCOC(=O)CSc1nc2ccc(NC(=O)c3ccc(C)cc3)cc2s1	inactive
CCOc1ccc(-c2nonc2NC(=O)c2oc3cc(C)ccc3c2C)cc1	inconclusive: 22.4 µM [inhibitor, partial curve, poor fit]
CC(=O)N1CCOc2cc(S(=O)(=O)Nc3cccc(C(F)(F)F)c3)c(Cl)cc21	inconclusive: 25.1 µM [inhibitor, single point]
CCc1cccc(-n2c(C)nc3c(cnn3-c3ccc(Cl)cc3)c2=O)c1	inconclusive: 25.1 µM [inhibitor, partial curve, poor fit]
